# In the supplement of paper PMC4604168 (melanoma cell lines):
# Some of the results follow. Repeats are few or missing, and single values can be far off.
# System: SkMel2
# Assay: cell count relative to DMSO control; melanoma cells; higher = more viable cells
# Settings: library dose: standard library concentration; 72 h
# 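Note: cells treated in 1,536-well plates, then fixed and DAPI-stained, with nuclei counted from automated high-throughput microscope images.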
row,SMILES,cell count [%]
1,"Clc1ccc(Nc2nnc(Cc3ccncc3)c3ccccc23)cc1 [vatalanib] + O=C1NC(=O)/C(=C/c2ccc(-c3ccc(F)cc3O)o2)S1 [AS252424] (first compound 10 µM, partner dose 5 µM)",69.9
2,"Clc1ccc(Nc2nnc(Cc3ccncc3)c3ccccc23)cc1 [vatalanib] + COc1ccc(COc2ccc(Cc3cnc(N)nc3N)cc2OC)cc1 [GW2580] (first compound 10 µM, partner dose 5 µM)",75
3,"Clc1ccc(Nc2nnc(Cc3ccncc3)c3ccccc23)cc1 [vatalanib] + Cn1cc(/C=C2\C(=O)Nc3cccnc32)c2ccccc21 [GW441756] (first compound 10 µM, partner dose 2 µM)",77

# System: SkMel30
# Assay: as above
# Settings: library dose: standard library concentration; 72 h
row,SMILES,cell count [%]
1,"Clc1ccc(Nc2nnc(Cc3ccncc3)c3ccccc23)cc1 [vatalanib] + O=S(=O)(c1ccccc1)N(CC(F)(F)F)c1ccc(C(O)(C(F)(F)F)C(F)(F)F)cc1 [T0901317] (first compound 10 µM, partner dose 7 µM)",83
2,"Clc1ccc(Nc2nnc(Cc3ccncc3)c3ccccc23)cc1 [vatalanib] + Oc1cc(-c2nc(-c3ccccc3)[nH]c2-c2ccncc2)ccc1Cl [L779450] (first compound 10 µM, partner dose 1 µM)",74.9
3,"OCc1c[nH]c2ccccc12 [Indole-3-carbinol] + O=S(=O)(c1ccccc1)N(CC(F)(F)F)c1ccc(C(O)(C(F)(F)F)C(F)(F)F)cc1 [T0901317] (first compound 4 µM, partner dose 7 µM)",103
4,"Clc1ccc(Nc2nnc(Cc3ccncc3)c3ccccc23)cc1 [vatalanib] + COC(=O)c1sccc1S(=O)(=O)Nc1ccc(Nc2ccccc2)cc1OC [GSK0660] (first compound 10 µM, partner dose 5 µM)",83.9
5,"OCc1c[nH]c2ccccc12 [Indole-3-carbinol] + NCC(=O)Nc1ccc(-n2nc(C(F)(F)F)cc2-c2ccc3c(ccc4ccccc43)c2)cc1 [OSU03012] (first compound 4 µM, partner dose 5 µM)",45.9
6,"Clc1ccc(Nc2nnc(Cc3ccncc3)c3ccccc23)cc1 [vatalanib] + CCN(CC)CCCCNc1ncc2cc(-c3cc(OC)cc(OC)c3)c(NC(=O)NC(C)(C)C)nc2n1 [PD173074] (first compound 10 µM, partner dose 0.5 µM)",86.2
7,"OCc1c[nH]c2ccccc12 [Indole-3-carbinol] + CC(C)CCN1c2nc(Nc3cc(F)c(O)c(F)c3)ncc2N(C)C(=O)C1C [BID1870] (first compound 4 µM, partner dose 1 µM)",74
8,"OCc1c[nH]c2ccccc12 [Indole-3-carbinol] + O=C(O)C(=O)Nc1sc2c(c1C(=O)O)CCNC2 [TCS401] (first compound 4 µM, partner dose 8.33333 µM)",115
9,"Clc1ccc(Nc2nnc(Cc3ccncc3)c3ccccc23)cc1 [vatalanib] + COc1cc(N2CCC(N3CCN(C)CC3)CC2)ccc1Nc1ncc(Cl)c(Nc2ccccc2S(=O)(=O)C(C)C)n1 [NVP-TAE684] (first compound 10 µM, partner dose 0.4 µM)",85.1
10,"OCc1c[nH]c2ccccc12 [Indole-3-carbinol] + COc1ccc2c(c1)CCC1C2CCC2(C)C(NCCCCCCN3C(=O)C=CC3=O)CCC12 [U73122] (first compound 4 µM, partner dose 2 µM)",80.3
11,"OCc1c[nH]c2ccccc12 [Indole-3-carbinol] + N#Cc1c(O)c2c(-c3ccc(-c4ccccc4O)cc3)csc2[nH]c1=O [A769662] (first compound 4 µM, partner dose 10 µM)",123
12,"OCc1c[nH]c2ccccc12 [Indole-3-carbinol] + CCN(CC)CCCCNc1ncc2cc(-c3cc(OC)cc(OC)c3)c(NC(=O)NC(C)(C)C)nc2n1 [PD173074] (first compound 4 µM, partner dose 0.5 µM)",74.4
13,"OCc1c[nH]c2ccccc12 [Indole-3-carbinol] + Oc1cc(-c2nc(-c3ccccc3)[nH]c2-c2ccncc2)ccc1Cl [L779450] (first compound 4 µM, partner dose 1 µM)",86.3
